In PubChem BioAssay AID1645882 (National Center for Advancing Translational Sciences (NCATS), 2021):
The whole screen tested about 16,000 compounds, of which about 120 (0.75%) were called active. Not shown: some 4% with an inconclusive outcome. The call rests on the fitted dose curve; in most records, active means well fitted inhibition curve with a large enough effect; inconclusive means small, poorly fitted or top-dose-only effect; inactive means no such curve, though single readings can be large or run the other way. Some of the results follow.

target: Rap guanine nucleotide exchange factor 3 (Homo sapiens) (UniProt O95398); test: Validation qHTS for antagonist of cAMP-regulated guanine nucleotide exchange factor 3 (EPAC1); settings: EPAC1 Rap1B-BODIPY-GDP exchange, fluorescence; series mostly up to 150 µM; activity change, negative = inhibition: at the top concentration;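 further: plate controls were DMSO for no effect and ATA control for full effect; nearly all actives have a fitted effect of over 75% in size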
Method in brief: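 Nucleotide exchange followed as fluorescence loss when BODIPY-GDP leaves Rap1B (480 nm excitation, 540 nm emission), read at 5 min intervals over 30 min. Reaction: 100 nM EPAC1, 250 nM RAP1B-BODIPY-GDP, 50 uM GDP; ATA and DMSO define normalization.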

Chain of UniProt O95398 (O95398 whole entry, looked up): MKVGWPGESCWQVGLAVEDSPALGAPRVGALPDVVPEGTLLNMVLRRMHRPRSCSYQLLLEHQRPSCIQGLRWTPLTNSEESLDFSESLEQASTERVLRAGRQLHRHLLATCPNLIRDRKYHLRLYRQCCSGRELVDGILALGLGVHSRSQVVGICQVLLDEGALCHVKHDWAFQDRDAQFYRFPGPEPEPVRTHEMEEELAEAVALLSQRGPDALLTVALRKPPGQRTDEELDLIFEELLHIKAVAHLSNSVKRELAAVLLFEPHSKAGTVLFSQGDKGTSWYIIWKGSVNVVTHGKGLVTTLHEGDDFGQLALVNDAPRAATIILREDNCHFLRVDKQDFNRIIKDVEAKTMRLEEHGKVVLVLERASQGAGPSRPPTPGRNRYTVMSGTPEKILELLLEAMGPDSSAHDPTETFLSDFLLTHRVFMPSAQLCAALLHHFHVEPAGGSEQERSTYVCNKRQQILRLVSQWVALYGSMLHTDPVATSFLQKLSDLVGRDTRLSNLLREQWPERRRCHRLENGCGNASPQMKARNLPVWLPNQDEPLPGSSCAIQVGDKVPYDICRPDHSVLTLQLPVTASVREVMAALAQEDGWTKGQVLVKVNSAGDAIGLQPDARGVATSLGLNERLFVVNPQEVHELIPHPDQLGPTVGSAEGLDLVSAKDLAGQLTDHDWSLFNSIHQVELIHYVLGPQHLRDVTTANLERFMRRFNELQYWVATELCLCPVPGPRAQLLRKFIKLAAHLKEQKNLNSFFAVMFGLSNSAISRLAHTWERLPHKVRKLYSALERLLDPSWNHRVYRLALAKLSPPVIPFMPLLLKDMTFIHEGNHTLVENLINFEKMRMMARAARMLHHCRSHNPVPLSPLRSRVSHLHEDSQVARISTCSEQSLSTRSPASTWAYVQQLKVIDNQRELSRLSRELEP

Activity change, negative = inhibition, inactive:
CC(C)c1ccc(C(=O)C[N+]2(C)CCOCC2)cc1 25.1%
COc1ccc(-n2c(=O)c(CCc3ccccc3)nc3cnc(N4CCOCC4)nc32)cc1 2.16%
CCNc1ncc2nc(-c3ccc(Cl)cc3)c(=O)n(CCC#N)c2n1 11.9%
CN1CCN(c2ncc3nc(CCc4ccccc4)c(=O)n(C)c3n2)CC1 -12.2%
COC(=O)c1cc(CNC(=O)c2ccccc2)cc(NC(=O)c2ccccc2OC)c1 6%
O=C(O)c1cc2ccccc2[nH]1 7.24%
O=c1c(-c2ccccc2)nc2cnc(N3CCOCC3)nc2n1C1CC1 -5.26%
CN(Cc1ccco1)c1cc(-c2cccc(C#N)c2)ncn1 0.164%
O=c1cc(-c2ccccc2)oc2cc(O)c(O)cc12 -11.4%
CCN(CC)CCOc1ccc(Cc2ccccc2)cc1
CCCCCCCCCCCCCCCC(=O)OCCC1CCN(CCCN2c3ccccc3Sc3ccc(S(=O)(=O)N(C)C)cc32)CC1 16.5%
N#CCCn1c(=O)c(-c2ccccc2)nc2cnc(N3CCNCC3)nc21 7.97%
Cc1ccc(S(=O)(=O)NC(=O)NN2CC3CCCC3C2)cc1 (stereo unspecified)
CCC(C)C(C(=O)OCC[N+](C)(CC)CC)c1ccccc1 (stereo unspecified) 27.5%
CC(C)CN1CCCC2(CCN(C(=O)c3cccc(F)c3)CC2)C1 8.67%
Cc1cc(C(=O)NCC2CCC3(CCN(Cc4ccccc4C)CC3)O2)n(C)n1 (stereo unspecified) 9.45%
OCC1OC(n2cnc3c(Cl)ncnc32)C(O)C1O (stereo unspecified) 14.2%
CC(C)C(N)C(=O)O (stereo unspecified) -18.2%
O=C1Nc2ccccc2C(=O)N2CCC[C@@H]12 25.2%
COc1cc(NS(C)(=O)=O)ccc1Cc1c2ccccc2nc2ccccc12 11.4%
COc1ccc(-c2cc(=O)c3c(O)cc(O)cc3o2)cc1
Cc1cnc(C)c(-c2ccc3c(c2)CC(CNC(=O)Cc2c(C)[nH]c4ccccc24)O3)n1 (stereo unspecified) 3.83%
CC(=O)N[C@@H](CC(=O)N[C@@H](CCC(=O)O)C(=O)O)C(=O)O -1.35%
c1ccc(C(NCCNC(c2ccccc2)c2ccccc2)c2ccccc2)cc1 -11.5% [at 75.8 µM]
O=S(=O)(c1ccccc1)N1CCC2(CCCN(C(c3ccccc3)c3ccccc3)C2)CC1 4.72%
Cc1cnc(CNc2ncncc2-c2ccccc2C#N)cn1 20%
CC(=O)N[C@@H](C=O)[C@H](O)[C@H](O)[C@@H](O)CO
CC(=O)Oc1ccc2c(c1C(C)C)CCC1C(C)(C)CCC[C@@]21C (stereo partly specified) -9.52%
CCCC[C@@H](C=O)NC(=O)[C@H](CC(C)C)NC(=O)OCc1ccccc1 -45.9% [at 201 µM]
CN(C)Cc1ccccc1-c1cc(Nc2ccccc2)ncn1 20%
O=C(NCc1nnc2n1CCN(Cc1cc(F)cc(F)c1)CC2)c1cccc(F)c1 -7.52%
